What all share (assay): Primary Screen for Target Class Profiling of Small Molecule Inhibitors of Methyltransferases
Test [1] addresses Glycine N-methyltransferase (Homo sapiens) (UniProt Q14749). The following applies: purified enzyme, MTase-Glo SAH luminescence; measured here: GNMT inhibition; at 40 µM; stronger effect = lower value. The essentials:
(§1)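 Each enzyme was assayed with SAM and its substrate. SAH formation detected by MTase-Glo luminescence; single-point 40 uM screen[…].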

The target in test [2] is Guanidinoacetate N-methyltransferase (Homo sapiens) (UniProt Q14353). The following applies: purified enzyme, MTase-Glo SAH luminescence; measured here: GAMT inhibition; at 40 µM; stronger effect = lower value. The method in brief:
as §1

Test [3] deals with Histamine N-methyltransferase (Homo sapiens) (UniProt P50135). The following applies: purified enzyme, MTase-Glo SAH luminescence; measured here: HNMT inhibition; at 40 µM; stronger effect = lower value. The method in brief: as §1
The target in test [4] is Nicotinamide N-methyltransferase (Homo sapiens) (UniProt P40261). The following applies: purified enzyme, MTase-Glo SAH luminescence; measured here: NNMT inhibition; at 40 µM; stronger effect = lower value. The method in brief:
as §1

Test [5] has as its target Phenylethanolamine N-methyltransferase (Homo sapiens) (UniProt P11086). Particulars: purified enzyme, MTase-Glo SAH luminescence; measured here: PNMT inhibition; at 40 µM; stronger effect = lower value. The method in brief:
as §1

Values joined by “and” are separate entries in the source; they are usually repeats but may differ in a detail not shown here. Identical values can stand only once. The list shows a part of the results. Further columns of the screen follow, without active or inactive calls.
% is set by controls: 0 for no effect and ±100 for the full control effect.

Consider `CCOC(=O)Cc1ccc(NC(=O)N2Cc3ccccc3-n3cccc3C2c2ccc(CC)cc2)cc1` (stereo not given), for which the activity change, negative = inhibition in test [1] came to 11.7%; in test [2], 3.5%; in test [3], 7.89%; in test [4], 8.75%; in test [5] it was 10.2%.

`COc1ccc(-c2cc3c(cn2)CN(C)CCN3)cn1`: the activity change, negative = inhibition in test [1] was -10.7%; in test [2] it was -6.16%; in test [3], -73.3%; in test [4], -16.4%; in test [5], -4.22%.

Regarding `CC1=C2C[C@H]3[C@@H](CC=C4C[C@@H](O)CC[C@@]43C)[C@@H]2CC[C@]12O[C@@H]1C[C@H](C)CN[C@H]1[C@H]2C`, the activity change, negative = inhibition in test [1] was 4.29%; in test [2], 8.6%; in test [3] it was 6.39%; in test [4], -7.84%; in test [5], 0.505%.

`CCc1ccc(C2c3cccn3-c3ccccc3CN2C(=O)NCCC(C)C)cc1` (stereo not given): the activity change, negative = inhibition in test [1] is 5.48%; in test [2] it was 0%; in test [3], 1.18%; in test [4] it was -2.31%; in test [5], 3.9%.

As for `NC(C(=O)O)c1cc(=O)[nH]o1` (stereo not given), the activity change, negative = inhibition in test [1] was 2.21%; in test [2] it was 6.88%; in test [3] it was 6.98%; in test [4], -8.01%; in test [5], -5.87%.

Consider `CCC1c2cccn2-c2ccccc2CN1C(=O)Nc1cc(Cl)c(OC)cc1OC` (stereo not given), for which the activity change, negative = inhibition in test [1] is 0.032%; in test [2], 0%; in test [3] it was -0.468%; in test [4], 0.826%; in test [5] it was 5.6%.

Take `COc1ccc2c(C(=O)c3ccc(Cl)cc3)c(C)n(CC(=O)O)c2c1`: the activity change, negative = inhibition in test [1] is -1.99%; in test [2], 4.52%; in test [3] it was 10.1%; in test [4], -11.2%; in test [5] it was 3.35%.

As to `Cc1ccc(C)c(NC(=O)N2Cc3ccccc3-n3cccc3C2c2cccc(Cl)c2)c1` (stereo not given), the activity change, negative = inhibition was 13.7% in test [1]; 0% in test [2]; 6.87% in test [3]; 5.98% in test [4]; 4.83% in test [5].

Take `CCOc1ccc(Oc2ccc(OCc3cc(F)ccc3F)cc2)c(N)c1`: the activity change, negative = inhibition in test [1] was 1.93%; in test [2], 3.25%; in test [3], 10.8%; in test [4] it was -16.7%; in test [5], 3.64%.

`COc1ccc(C2c3cccn3-c3ccccc3CN2C(=O)Nc2ccccc2)cc1` (stereo not given): the activity change, negative = inhibition is 4.08% in test [1]; 0.092% in test [2]; -0.631% in test [3]; -3.26% in test [4]; 3.1% in test [5].

For the molecule `CCc1ccc(NC(=O)N2Cc3ccccc3-n3cccc3C2C(C)C)cc1` (stereo not given), the activity change, negative = inhibition in test [1] came out at 0.784%; in test [2], 0%; in test [3], 10.1%; in test [4] it was 9.58%; in test [5] it was 7.27%.

For the molecule `COc1cccc(CNC(=O)N2Cc3ccccc3-n3cccc3C2c2ccccc2)c1` (stereo not given), the activity change, negative = inhibition is 4.08% in test [1]; 0.246% in test [2]; -2.35% in test [3]; -6.29% in test [4]; 0.689% in test [5].

Consider `Cc1cccc(C2c3cccn3-c3ccccc3CN2C(=O)Nc2cccc(C)c2C)c1` (stereo not given), for which the activity change, negative = inhibition in test [1] was 7.59%; in test [2] it was 0.677%; in test [3], -1.59%; in test [4] it was -1.06%; in test [5] it was 3.6%.

For the molecule `CCOC(=O)Cc1ccc(NC(=O)N2Cc3ccccc3-n3cccc3C2C(C)C)cc1` (stereo not given), the activity change, negative = inhibition in test [1] was -1.06%; in test [2], 4.48%; in test [3], -0.439%; in test [4], -1.64%; in test [5], 0.444%.

As to `CCCN1CC[C@@H]2c3cc(O)ccc3CC[C@@H]21`, the activity change, negative = inhibition is -1.8% in test [1]; 8.08% in test [2]; -70% in test [3]; -9.26% in test [4]; -2.17% in test [5].

Turning to `O=C(Nc1ccc2c(c1)OCCO2)N1Cc2ccccc2-n2cccc2C1c1ccccc1` (stereo not given), the activity change, negative = inhibition in test [1] was 4.86%; in test [2], 6.29%; in test [3] it was -1.53%; in test [4], -4.95%; in test [5], 0.898%.

Regarding `O=c1[nH]c2ccccc2n1C1CCN(CCCC(c2ccc(F)cc2)c2ccc(F)cc2)CC1`, the activity change, negative = inhibition in test [1] is -1.28% and -10.1%; in test [2], -11.4% and 6.14%; in test [3], 2.3% and -6.37%; in test [4], -35.8% and -14.2%; in test [5], -6.73% and 4%.

In the case of `N#Cc1ccc([C@H]2CCCC[C@H]2O)cc1C(F)(F)F`, the activity change, negative = inhibition was 6.65% in test [1]; 4.2% in test [2]; 5.45% in test [3]; -9.42% in test [4]; -10.6% in test [5].

For the molecule `Cn1nc(C2CCCNC2)n(C2CCCC2)c1=O` (stereo not given), the activity change, negative = inhibition in test [1] was -4.3%; in test [2], -2.73%; in test [3], -5.01%; in test [4], 0.039%; in test [5], 2.13%.

On to `COc1cc2c(cc1O)C1(C)CCC(O)C(C)(C)C1CC2=O` (stereo not given), for which the activity change, negative = inhibition in test [1] was -0.426%; in test [2], -4.07%; in test [3] it was -5.63%; in test [4], -15.2%; in test [5], -0.72%.

`Cc1ccc(C)c(NC(=O)N2Cc3ccccc3-n3cccc3C2C(C)C)c1` (stereo not given): the activity change, negative = inhibition in test [1] was -5.93%; in test [2], 2.34%; in test [3] it was 2.36%; in test [4], 0.437%; in test [5], 1.16%.

For the molecule `CCOc1ccc(C2c3cccn3-c3ccccc3CN2C(=O)NCc2ccccc2)cc1` (stereo not given), the activity change, negative = inhibition in test [1] stood at 1.33%; in test [2] it was 1.82%; in test [3], 3.27%; in test [4] it was 1.67%; in test [5] it was 4.3%.

For `CC(C)C1c2cccn2-c2ccccc2CN1C(=O)Nc1ccccc1C(F)(F)F` (stereo not given), the activity change, negative = inhibition was -0.302% in test [1]; 4.44% in test [2]; 2.12% in test [3]; -2.36% in test [4]; 2.01% in test [5].

On to `CCc1ccc(NC(=O)N2Cc3ccccc3-n3cccc3C2c2cccs2)cc1` (stereo not given), for which the activity change, negative = inhibition in test [1] stood at 12.3%; in test [2], 2.25%; in test [3] it was 6.81%; in test [4], 5.32%; in test [5], 8.85%.

In the case of `CCC1c2cccn2-c2ccccc2CN1C(=O)Nc1ccc(C)cc1C` (stereo not given), the activity change, negative = inhibition was -0.931% in test [1]; 3.41% in test [2]; -0.537% in test [3]; -3.42% in test [4]; 1.98% in test [5].

In the case of `CC(C)NC(=O)N1Cc2ccccc2-n2cccc2C1C` (stereo not given), the activity change, negative = inhibition is 10.3% in test [1]; 0% in test [2]; 4.26% in test [3]; -3.19% in test [4]; 5.75% in test [5].

On to `CC[C@H]1CN2CC[C@H]1C[C@H]2[C@H](O)c1ccnc2ccc(OC)cc12`, for which the activity change, negative = inhibition in test [1] is -0.563%; in test [2] it was 1.01%; in test [3], -7.52%; in test [4] it was -18.1%; in test [5], 5.73%.

On to `COc1ccccc1NC(=O)N1Cc2ccccc2-n2cccc2C1c1ccc(N(C)C)cc1` (stereo not given), for which the activity change, negative = inhibition is 1.35% in test [1]; 3.54% in test [2]; -8.87% in test [3]; -2.52% in test [4]; -0.044% in test [5].

Turning to `COc1ccc(C2c3cccn3-c3ccccc3CN2C(=O)Nc2ccc(C)c(C)c2)cc1OC` (stereo not given), the activity change, negative = inhibition in test [1] is 9.55%; in test [2], 4.15%; in test [3], 1.82%; in test [4], -0.526%; in test [5], 3.24%.

Turning to `CCC1CN2CCc3cc(OC)c(OC)cc3C2CC1CC1=NCCc2cc(O)c(OC)cc21` (stereo not given), the activity change, negative = inhibition in test [1] was -8.94%; in test [2] it was -4.62%; in test [3], -8.77%; in test [4], -17.9%; in test [5] it was -6.09%.

For `O=c1ccc2[nH]cc(C3=CCNCC3)c2[nH]1`, the activity change, negative = inhibition was -13.8% in test [1]; 7.99% in test [2]; -55.1% in test [3]; -10.5% in test [4]; -10.4% in test [5].

Source of the values: PubChem BioAssay AID1745853 (National Center for Advancing Translational Sciences (NCATS), 2022).
